Measured values reported in the supplement of paper PMC4604168 (melanoma cell lines).
The other results are listed elsewhere or left out. Most values come without repeats; read them as rough.

test system: SkMel30; experiment: cell count relative to DMSO control; melanoma cells; higher = more viable cells; conditions: library dose: low library concentration; 72 h
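Note: cell number obtained by counting DAPI-stained nuclei in high-throughput microscope images with image analysis software, screen run in 1,536-well plates.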

Which cell count does the source give for `Cc1cc(Nc2cc(N3CCN(C)CC3)nc(/C=C/c3ccccc3)n2)n[nH]1` + CCCCCCCCCCCC1=C(O)C(=O)C=C(O)C1=O [Embelin] (first compound 0.04 µM, partner dose 1.2 µM) here?
Its cell count is 99.5%.

With `Cn1c(=O)n(-c2ccc(C(C)(C)C#N)cc2)c2c3cc(-c4cnc5ccccc5c4)ccc3ncc21` + Cc1cc(N2CCOCC2)cc2[nH]c(-c3c(NC[C@@H](O)c4cccc(Cl)c4)cc[nH]c3=O)nc12 [BMS536924] (first compound 0.004 µM, partner dose 0.2 µM) as the compound, how does the cell count read?
Its cell count is 69.3%.

With `Cc1cc(Nc2cc(N3CCN(C)CC3)nc(/C=C/c3ccccc3)n2)n[nH]1` + C=CCn1c(=O)c2cnc(Nc3ccc(N4CCN(C)CC4)cc3)nc2n1-c1cccc(C(C)(C)O)n1 [MK1775] (first compound 0.04 µM, partner dose 0.02 µM) as the compound, how does the cell count read?
The cell count was 83.6%.

`CC(C)C[C@H](NC(=O)[C@H](Cc1ccccc1)NC(=O)c1cnccn1)B(O)O` [Bortezomib] + COC(=O)c1sccc1S(=O)(=O)Nc1ccc(Nc2ccccc2)cc1OC [GSK0660] (first compound 0.001 µM, partner dose 1 µM) was tested. Which cell count did it give?
Its cell count is 79.5%.

`Cc1cn(-c2cc(NC(=O)c3ccc(C)c(Nc4nccc(-c5cccnc5)n4)c3)cc(C(F)(F)F)c2)cn1` [nilotinib] + O=C(Nc1ccccc1)c1cc([N+](=O)[O-])ccc1Cl [GW9662] (first compound 0.2 µM, partner dose 2 µM) was tested. Which cell count did it give?
The cell count was 83.3%.

With `CC(C)C[C@H](NC(=O)[C@H](Cc1ccccc1)NC(=O)c1cnccn1)B(O)O` [Bortezomib] + C=CCn1c(=O)c2cnc(Nc3ccc(N4CCN(C)CC4)cc3)nc2n1-c1cccc(C(C)(C)O)n1 [MK1775] (first compound 0.001 µM, partner dose 0.02 µM) as the compound, how does the cell count read?
The cell count was 89.4%.

With `Cc1cn(-c2cc(NC(=O)c3ccc(C)c(Nc4nccc(-c5cccnc5)n4)c3)cc(C(F)(F)F)c2)cn1` [nilotinib] + CN(C)S(=O)(=O)c1ccc2c(c1)/C(=C/c1cc3c([nH]1)CCCC3)C(=O)N2 [SU6656] (first compound 0.2 µM, partner dose 0.4 µM) as the compound, how does the cell count read?
Its cell count is 95.5%.

With `Cc1cc(Nc2cc(N3CCN(C)CC3)nc(/C=C/c3ccccc3)n2)n[nH]1` + CC1(C)NC(=O)N(c2ccc([N+](=O)[O-])c(C(F)(F)F)c2)C1=O [nilutamide] (first compound 0.04 µM, partner dose 1 µM) as the compound, how does the cell count read?
The cell count was 105%.

Which cell count does the source give for `Cn1c(=O)n(-c2ccc(C(C)(C)C#N)cc2)c2c3cc(-c4cnc5ccccc5c4)ccc3ncc21` + O=C(O)c1ccc(-c2c[nH]c3ncc(-c4ccccc4)cc23)cc1C1CCCC1 [GSK650394] (first compound 0.004 µM, partner dose 0.16 µM) here?
The cell count was 92.7%.

Which cell count does the source give for `Cc1cn(-c2cc(NC(=O)c3ccc(C)c(Nc4nccc(-c5cccnc5)n4)c3)cc(C(F)(F)F)c2)cn1` [nilotinib] + Cc1ccc(NC(=O)c2cccc(N(C)C)c2)cc1NC(=O)c1ccc(O)cc1 [ZM336372] (first compound 0.2 µM, partner dose 2 µM) here?
The cell count was 83.6%.

For `Cc1cc(Nc2cc(N3CCN(C)CC3)nc(/C=C/c3ccccc3)n2)n[nH]1` + O=C(O)C(=O)Nc1sc2c(c1C(=O)O)CCNC2 [TCS401] (first compound 0.04 µM, partner dose 1.66667 µM), which cell count is on record?
Its cell count is 96.1%.

`CC(C)C[C@H](NC(=O)[C@H](Cc1ccccc1)NC(=O)c1cnccn1)B(O)O` [Bortezomib] + COc1cc(Nc2ncc(F)c(Nc3ccc4c(n3)NC(=O)C(C)(C)O4)n2)cc(OC)c1OC [Tamatinib] (first compound 0.001 µM, partner dose 0.4 µM) was tested. Which cell count did it give?
The cell count was 105%.

`Cc1cc(Nc2cc(N3CCN(C)CC3)nc(/C=C/c3ccccc3)n2)n[nH]1` + Cc1cc(N2CCOCC2)cc2[nH]c(-c3c(NC[C@@H](O)c4cccc(Cl)c4)cc[nH]c3=O)nc12 [BMS536924] (first compound 0.04 µM, partner dose 0.2 µM) was tested. Which cell count did it give?
The cell count was 91.3%.

`Cc1cn(-c2cc(NC(=O)c3ccc(C)c(Nc4nccc(-c5cccnc5)n4)c3)cc(C(F)(F)F)c2)cn1` [nilotinib] + COc1cc2ncnc(Nc3ccc(Oc4ccccc4)cc3)c2cc1OC [SrcI1] (first compound 0.2 µM, partner dose 2 µM) was tested. Which cell count did it give?
The cell count was 94.4%.
